Results reported in PubChem BioAssay AID540317 (National Center for Advancing Translational Sciences (NCATS), 2011).
The campaign covered roughly 390,000 compounds. About 2,200 (0.56%) were called active. The inconclusive results got no clear call from the source; some entries with a clear call stand among them for comparison. The call rests on the fitted dose curve; in most records, active means well fitted inhibition curve with a large enough effect; inconclusive means small, poorly fitted or top-dose-only effect; inactive means no such curve, though single readings can be large or run the other way. Where the call is inconclusive, the potency comes from a doubtful curve fit.
Further: nearly all actives have a fitted effect of over 70% in size.
Potency means the concentration at half of the fitted maximal effect; tags describe the fitted curve by direction and shape.

These molecules were tested against Chromobox protein homolog 1 (Homo sapiens) (UniProt P83916) (assay: HTS for Inhibitors of HP1-beta Chromodomain Interactions with Methylated Histone Tails). Conditions: AlphaScreen HP1-beta / biotin-H3K9me3 peptide binding; series mostly up to 114 µM; activity change, negative = inhibition: at the top concentration.
UniProt P83916, sequence (P83916 whole entry, looked up): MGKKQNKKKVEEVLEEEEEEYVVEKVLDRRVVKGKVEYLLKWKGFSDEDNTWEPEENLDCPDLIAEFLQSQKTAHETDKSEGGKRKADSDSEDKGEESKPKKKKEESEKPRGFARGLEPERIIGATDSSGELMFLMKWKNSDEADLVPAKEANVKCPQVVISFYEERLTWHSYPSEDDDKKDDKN
In short: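 Compound inhibition of the preformed complex between 50 nM HP1-beta and 50 nM biotinylated H3K9me3 peptide was read by AlphaScreen. Buffer was PBS pH 7.4 with 0.01% Tween-20. Incubations ran 30 min at room temperature, with 10 ug/mL donor/acceptor beads.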
In the case of `Cc1onc(-c2ccccc2)c1C(=O)NNC(=S)NC(=O)c1ccc(Br)cc1`, the Potency is reported as inconclusive: 39.8 µM [inhibitor, partial curve]. `CCc1cccc(N=c2c([N+](=O)[O-])nn(-c3ccc4c(c3)OCCO4)n2O)c1` was tested, and the Potency was inconclusive: 17.8 µM [inhibitor, full curve]. With `CCN(CC)c1ccc(N=C2C=CC(=O)C=C2NC(C)=O)cc1` the Potency was active: 25.1 µM. For `O=C(Nc1ccccc1N1CCOCC1)c1ccc([N+](=O)[O-])s1`, the Potency was inconclusive: 28.2 µM [inhibitor, single point]. `Cc1ccc(CNCc2ccc3c(c2)OCO3)cc1` was tested, and the Potency was inconclusive: 70.8 µM [inhibitor, partial curve]. For `Cc1cc(C)c(O)c(CN(C)Cc2cc(Cl)cc(Cl)c2O)c1`, the Potency was inconclusive: 44.7 µM [inhibitor, partial curve, poor fit]. `CCc1ccc(S(=O)(=O)ON2C(=O)c3ccccc3C2=O)cc1` was tested, and the Potency was active: 35.5 µM. In the case of `CCCN(CC1CC1)S(=O)(=O)c1ccc(-n2cnnn2)c(OC)c1`, the Potency is reported as inconclusive: 35.5 µM [inhibitor, partial curve, poor fit]. In the case of `Cc1ccnc(NC(=O)c2ccccc2[N+](=O)[O-])c1`, the Potency is reported as inconclusive: 0.708 µM [inhibitor, full curve, poor fit]. With `COc1cc(C(=O)NC(=S)Nc2ccccc2N2CCCC2)cc(OC)c1OC` the Potency was inconclusive: 25.1 µM [inhibitor, full curve]. `CN(C)CCCn1c(SCc2c(Cl)cccc2Cl)nnc1-c1ccncc1` was tested, and the Potency was inconclusive: 15.8 µM [inhibitor, partial curve, poor fit]. For `Nc1ccc(N(CCO)CCO)cc1`, the Potency was inconclusive: 79.4 µM [inhibitor, partial curve, poor fit]. For `Cc1ccc(C(=O)N/N=C/c2cccc(OC(=O)/C=C/c3ccco3)c2)cn1`, the Potency was inconclusive: 28.2 µM [inhibitor, full curve]. For `COc1cc(/C=N/Nc2ccc(Cl)c(C(=O)O)c2)ccc1OC(=O)c1cccs1`, the “activity change, negative = inhibition” value was inactive: -7%. With `CCNc1ccc2noc3c2c1C(=O)c1ccccc1-3` the Potency was inconclusive: 39.8 µM [inhibitor, single point]. For `CC1CC2(CCCCC2)N2C(=O)C(=O)c3cccc1c32` (centres undefined), the Potency was inconclusive: 50.1 µM [inhibitor, partial curve]. In the case of `COc1ccccc1NC(=O)CCN1C(=O)C2CC=CCC2C1=O` (centres undefined), the “activity change, negative = inhibition” value is reported as inactive: 25.7%. In the case of `COc1ccc(N2CCN(C(=O)c3cn(C4CCCCC4)c(=O)c4c3c3ccccc3n4C)CC2)cc1`, the Potency is reported as inconclusive: 12.6 µM [inhibitor, full curve]. With `O=C(Cc1cn2ccsc2n1)NCc1ccccc1` the “activity change, negative = inhibition” value was inactive: 31.9%. For `CC(C)c1ccc(Nc2ncccc2C(=O)O)cc1`, the Potency was inconclusive: 89.1 µM [inhibitor, single point]. `CCC(=O)N1CCc2cc(S(=O)(=O)CCC(=O)NCc3ccccc3Cl)ccc21` was tested, and the “activity change, negative = inhibition” value was inactive: 24.6%. For `C/C(=N\NC(=S)NCc1ccccc1)c1ccccc1F`, the Potency was inconclusive: 70.8 µM [inhibitor, partial curve, poor fit]. With `CCOC(=O)CNC(c1ccccc1)c1cc(Br)ccc1NC(=O)OCC` (centres undefined) the “activity change, negative = inhibition” value was inactive: 73.7%. `COc1ccc(C)cc1S(=O)(=O)N(CC(=O)Nc1cccc([N+](=O)[O-])c1)c1ccc(C)cc1` was tested, and the Potency was inconclusive: 79.4 µM [inhibitor, partial curve]. For `Cc1oc2ncn(C)c(=O)c2c1C(=O)N1CCN(c2ccc(Cl)cc2)CC1`, the “activity change, negative = inhibition” value was inactive: -1.66%. `O=C1c2oc3ccccc3c(=O)c2C(c2cccc(O)c2)N1Cc1ccc(F)cc1` (centres undefined) was tested, and the “activity change, negative = inhibition” value was inactive: 21.9%. For `COc1ccc(Nc2ccccc2N)cc1`, the Potency was inconclusive: 56.2 µM [inhibitor, partial curve, poor fit]. With `CCOC(=O)Cc1ccc(NC(=O)N2CCC(CN3CCC(C)CC3)CC2)cc1` the “activity change, negative = inhibition” value was inactive: 3.36%. `O=C(NC1CCCCC1)c1sc(=S)n2c1[nH]c(=O)c1ccccc12` was tested, and the Potency was inconclusive: 31.6 µM [inhibitor, partial curve, poor fit]. For `Nc1[nH]ncc1-c1ccc(F)cc1`, the “activity change, negative = inhibition” value was inactive: 21.1%. `CN(C)S(=O)(=O)c1cc(NC(=O)CN2CCCc3ccccc32)ccc1Cl` was tested, and the Potency was inconclusive: 79.4 µM [inhibitor, single point]. `COc1ccccc1C(=O)N1CCC(N2CCN(c3ccccc3)CC2)CC1` was tested, and the Potency was inconclusive: 15.8 µM [inhibitor, full curve]. In the case of `Cc1ccc(S(=O)(=O)Nc2ccc(=O)n(Cc3ccc(Cl)c(Cl)c3)c2)cc1`, the Potency is reported as inconclusive: 7.08 µM [inhibitor, full curve, poor fit]. In the case of `c1ccc(-c2cncnc2)nc1`, the “activity change, negative = inhibition” value is reported as inactive: 38%. For `Cc1ccc2sc(N(CCCN(C)C)C(=O)c3ccc(S(=O)(=O)N(C)Cc4ccccc4)cc3)nc2c1C`, the Potency was inconclusive: 22.4 µM [inhibitor, full curve]. In the case of `CCN(Cc1ccccc1)C(=O)c1cc2ccc3cccnc3c2[nH]1`, the “activity change, negative = inhibition” value is reported as inactive: 10.7%. With `CN1/C(=C\C(=O)COc2ccc3c(c2)OCO3)C(C)(C)c2ccccc21` the Potency was inconclusive: 28.2 µM [inhibitor, single point]. With `COc1ccc(C(=O)N2CCN(Cc3cc(OC)ccc3OC)CC2)cc1` the Potency was inconclusive: 14.1 µM [inhibitor, full curve]. `C#CCOCCOCCOCCNc1nc(N2CCN(C(=O)C(Cc3cc4ccccc4[nH]3)n3cc(C(N)C(C)CC)nn3)CC2)nc(N2CCN(C(=O)C(Cc3cc4ccccc4[nH]3)n3cc(C(N)C(C)CC)nn3)CC2)n1` (centres undefined) was tested, and the Potency was inconclusive: 44.7 µM [inhibitor, partial curve]. For `CCc1nn2cc(C(=O)c3cc(Cl)ccc3O)cnc2c1-c1ccc(F)cc1`, the Potency was inconclusive: 50.1 µM [inhibitor, single point]. `CCCCn1c(O)c(N=NC(=O)c2ccco2)c2ccccc21` was tested, and the Potency was inconclusive: 39.8 µM [inhibitor, single point]. With `COc1ccc(-n2c(C)ccc2C)c([N+](=O)[O-])c1` the Potency was inconclusive: 39.8 µM [inhibitor, partial curve]. `CCCCn1c(SCC(=O)Nc2cccc(OC)c2)nc2ccsc2c1=O` was tested, and the “activity change, negative = inhibition” value was inactive: 90.5%. For `O=C1c2ccccc2-c2onc3c(N4CCN(CCO)CC4)cc(N4CCN(C(=O)c5ccco5)CC4)c1c23`, the Potency was inconclusive: 14.1 µM [inhibitor, single point].
